Laboratory results: PubChem BioAssay AID1030 (National Center for Advancing Translational Sciences (NCATS), 2008)
Screen size: about 220,000 compounds; about 16,000 (7.3%) were called active. The shares of active, inactive and inconclusive entries below differ from those in the screen. Calls follow the shape of the dose curve; as a rule, active = well fitted inhibition curve with a large enough effect (not every such curve was filed as active); inconclusive = small, poorly fitted or top-dose-only effect, or another doubt; inactive = no such curve, though single readings can be large or run the other way. No potency is given beside an inconclusive call; the fits are too rough.
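For activity, negative = inhibition in this document: plate controls were no enzyme wells and a reference inhibitor.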
Potency is read from the fitted curve at half-maximal effect; tags tell the direction and shape of the fitted curve.

These compounds were tested against Aldehyde dehydrogenase 1A1 (Homo sapiens) (UniProt P00352) (assay: qHTS Assay for Inhibitors of Aldehyde Dehydrogenase 1 (ALDH1A1)). Conditions: Purified ALDH1A1, NADH fluorescence, propionaldehyde substrate; series mostly up to 75.3 µM; activity, negative = inhibition: at the top concentration.
UniProt P00352, sequence (P00352 whole entry, looked up): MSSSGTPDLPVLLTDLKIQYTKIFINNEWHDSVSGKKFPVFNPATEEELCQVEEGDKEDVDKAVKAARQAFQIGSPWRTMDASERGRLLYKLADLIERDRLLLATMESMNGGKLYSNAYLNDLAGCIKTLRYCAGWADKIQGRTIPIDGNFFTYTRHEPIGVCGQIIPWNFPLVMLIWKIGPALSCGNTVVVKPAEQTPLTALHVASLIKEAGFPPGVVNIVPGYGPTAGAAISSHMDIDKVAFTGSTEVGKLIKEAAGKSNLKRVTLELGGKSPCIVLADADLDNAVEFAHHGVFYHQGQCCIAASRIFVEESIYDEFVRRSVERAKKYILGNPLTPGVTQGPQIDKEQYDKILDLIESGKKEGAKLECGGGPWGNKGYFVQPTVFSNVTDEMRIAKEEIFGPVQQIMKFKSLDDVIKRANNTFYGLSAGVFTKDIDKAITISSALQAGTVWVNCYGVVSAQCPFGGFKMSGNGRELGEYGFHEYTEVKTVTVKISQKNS
With `Oc1ccc2ccccc2c1C=NC1CCCCC1` the Potency was inconclusive [inhibitor, single point].
For `Cc1cccc(Nc2nc(NCc3ccco3)c3ccccc3n2)c1`, the Potency was inconclusive [inhibitor, single point].
With `CCN(C(=O)CN1C=NS(=O)(=O)c2ccccc21)c1ccccc1` the “activity, negative = inhibition” value was inactive: 15.9%.
With `NC(=O)c1ccccc1N/C=C1\CCCCC1=O` the Potency was inconclusive [inhibitor, single point].
`O=C(O)C(Cc1ccccc1)N=Cc1c(O)c2ccccc2oc1=O` (configuration not stated) was tested, and the Potency was inconclusive [inhibitor, single point].
In the case of `CCc1ccccc1NC(=O)CCc1nc(-c2cccs2)no1`, the “activity, negative = inhibition” value is reported as inactive: -6.07%.
In the case of `COC(=O)CSc1nc(C)cc(C)n1`, the “activity, negative = inhibition” value is reported as inactive: 7.62%.
With `CC(=O)Nc1ccc(-c2cn3cc(C)ccc3n2)cc1` the Potency was inconclusive [inhibitor, partial curve].
With `O=C(NCC12CC3CC(CC(C3)C1)C2)c1nc2ncccn2n1` the Potency was inconclusive [inhibitor, single point].
In the case of `COc1ccccc1NS(=O)(=O)c1cccc(C(=O)N/N=C/c2ccc(C)o2)c1`, the “activity, negative = inhibition” value is reported as inactive: -14.1%.
For `NNC(=O)c1nc[nH]c1C(=O)Nc1ccccc1[N+](=O)[O-]`, the Potency was active: 0.794 µM.
For `CCOC(=O)N1CCC(N2CCN(S(=O)(=O)c3ccc(Cl)cc3)CC2)CC1`, the Potency was active: 14.1 µM.
In the case of `COCCCNC(=S)N/N=C/c1ccc(N(C)C)cc1`, the Potency is reported as inconclusive [inhibitor, partial curve].
For `Cc1sc2ncnc(Sc3nnnn3-c3ccccc3)c2c1C`, the Potency was inconclusive [inhibitor, single point].
With `Cc1ccc(C(=O)COC(=O)CCc2ccc(S(=O)(=O)N3CCCCC3)cc2)cc1` the Potency was inconclusive [inhibitor, single point].
For `COc1cc2c(cc1OC)CN(c1ccc([N+](=O)[O-])cc1C#N)CC2`, the Potency was inconclusive [inhibitor, single point].
In the case of `O=C(NCCNC1CCC(c2ccccc2)CC1)c1cccs1` (configuration not stated), the “activity, negative = inhibition” value is reported as inactive: -10.8%.
For `COC(=O)C(NC(=O)c1ccccc1)=C(C)C`, the “activity, negative = inhibition” value was inactive: 0.74%.
`Cc1ccccc1Nc1nnc(SCC(=O)NCc2cccs2)s1` was tested, and the Potency was inconclusive [inhibitor, single point].
For `CCN(CC)C(=O)c1cc2c(=O)n3cccc(C)c3nc2n1C`, the Potency was inconclusive [inhibitor, partial curve].
In the case of `CCOc1ccc(-n2c(-c3ccco3)n[nH]c2=S)cc1`, the Potency is reported as inconclusive [inhibitor, partial curve].
For `COc1ccc(Br)cc1C1CC(=O)N2CN(Cc3ccccc3)CSC2=C1C#N` (configuration not stated), the Potency was active: 0.112 µM.
With `CCCn1c(=O)c(-c2nc3ccccc3[nH]2)c(O)c2ccccc21` the Potency was inconclusive [inhibitor, partial curve].
For `O=C(c1ccccc1)c1c[nH]c(C(=O)NNc2ccccc2)c1`, the Potency was active: 22.4 µM.
For `COc1cccc(N2C(=O)CC(N3CCN(S(=O)(=O)c4ccccc4)CC3)C2=O)c1` (configuration not stated), the Potency was inconclusive [inhibitor, single point].
`O=C(COC(=O)c1ccc(S(=O)(=O)NCc2ccco2)cc1)Nc1ccc(Cl)cn1` was tested, and the “activity, negative = inhibition” value was inactive: 6.81%.
`CCOC(=O)c1sc(Nc2ccc(F)cc2)nc1C` was tested, and the Potency was inconclusive [inhibitor, partial curve].
With `Cc1nc2ccccn2c1C(=O)/C=C/c1cccc([N+](=O)[O-])c1` the Potency was inconclusive [inhibitor, partial curve, poor fit].
In the case of `CCC(Oc1ccccc1)C(=O)Nc1ccccn1` (configuration not stated), the Potency is reported as active: 2.82 µM.
In the case of `CCOC(=O)OCC1OC(c2ccccc2)C=CC1Oc1cccc(N(C)C)c1` (configuration not stated), the activity, negative = inhibition is reported as inactive: 5.2% [at 13.5 µM].
`COC(=O)Cn1c(CCC(=O)O)ccc1-c1ccccc1` was tested, and the Potency was inconclusive [inhibitor, single point].
`c1ccc2c(c1)CCN2CCN1CCc2ccccc21` was tested, and the Potency was active: 39.8 µM.
`N#C/C(=C(/O)COc1ccc(Br)cc1)c1nnc2n1CCCCC2` was tested, and the “activity, negative = inhibition” value was inactive: -5.16%.
For `CN(C)c1oc(-c2ccccc2F)nc1C#N`, the Potency was inconclusive [inhibitor, partial curve].
For `COc1cc(OC)cc(C(=O)N[C@@H](CCSC)c2nc3ccccc3[nH]2)c1`, the “activity, negative = inhibition” value was inactive: -8.65%.
`Cc1ccccc1C([O-])=Nc1ccc[n+](-c2nc3ccccc3nc2NS(=O)(=O)c2ccccc2)c1` was tested, and the Potency was inconclusive [inhibitor, single point].
In the case of `Cc1cc(C)c2c3c(sc2n1)C(c1ccccc1)C(C#N)=C(N)O3` (configuration not stated), the Potency is reported as inconclusive [inhibitor, single point].
With `O=C(NN1C(=O)C2C3C=CC(C3)C2C1=O)c1ccco1` (configuration not stated) the “activity, negative = inhibition” value was inactive: 6.99%.
With `Cc1ccc(C(=O)Nc2sc(C(=O)N(C)C)c(C)c2C#N)cc1` the “activity, negative = inhibition” value was inactive: -15.1%.
With `CCC(C)c1ccc(S(=O)(=O)N2CCN(C(=O)COc3ccc4c(C)cc(=O)oc4c3)CC2)cc1` (configuration not stated) the Potency was inconclusive [inhibitor, partial curve].
`N#Cc1ccccc1NC(=O)c1cccc(COc2ccc(Cl)cc2Cl)c1` was tested, and the Potency was inconclusive [inhibitor, single point].
`CO[C@@H]1COC(=O)C/C=C\[C@@H](C)COC(=O)[C@H](COCc2ccccc2)NC(=O)C/C=C\[C@H]1C` was tested, and the activity, negative = inhibition was inactive: -9.88% [at 13.5 µM].
For `CCN(CC)c1ccc(CN2CCC(C(=O)NCc3ccc(C)cc3)CC2)cc1`, the Potency was active: 14.1 µM.
In the case of `COC(=O)C1=C(C)NC2=C(C(=O)CC(C)(C)C2)C1c1ccccn1` (configuration not stated), the Potency is reported as inconclusive [inhibitor, partial curve].
`Cc1ccc(-c2cc(C(=O)Nc3ccc(S(=O)(=O)Nc4nccs4)cc3)c3ccccc3n2)c(C)c1` was tested, and the Potency was inconclusive [inhibitor, single point].
For `CCOc1cc(CN2CCN(c3cccc(C(F)(F)F)c3)CC2)ccc1OC`, the Potency was inconclusive [inhibitor, single point].
`CCOc1ccc(CC(=O)Nc2sc(Cc3ccccc3)cc2C(N)=O)cc1OCC` was tested, and the Potency was inconclusive [inhibitor, single point].
